This note sets out measurements from ChEMBL document CHEMBL4888484, “Replenishing the malaria drug discovery pipeline: Screening and hit evaluation of the MMV Hit Generation Library 1 (HGL1) against asexual blood stage Plasmodium falciparum ,using a nano luciferase reporter read-out” (2022).

The campaign covered roughly 150,000 compounds. About 540 (0.36%) showed an effect of 50% or more. This is one part of the list.

The test deals with Plasmodium falciparum. Description: Primary screen in NF54 nanoGlo assay, in single point, at 2uM, 72h; a lower Z score goes with more inhibition. The format is functional, Erythrocyte. The settings on record: timepoint 72 hour.
In the case of `Cc1c(S(=O)(=O)N2CC3CN(c4ccccc4)CC3C2)cnn1C` (stereo unspecified), the % Inhibition (commonly the drop in the measured response relative to a control, in per cent) is 37% and the Z score is given as -0.93.

As to `COc1ccc(C2CC(c3ccc(C)cc3)n3ncnc3N2C(=O)c2ccccc2)cc1` (stereo unspecified), the “% Inhibition” value turned out to be 32% and the Z score is -3.62.

For the compound `Cc1c(CCNC(=O)N(C)Cc2ccc(Cl)c(F)c2)cnn1C`, the “% Inhibition” value was found to be 3% and the Z score is on record as -0.36.

In the case of `Cc1cccc(N2N=C([C@H]3CCOC3)CC2=O)c1Cl`, the “% Inhibition” value is given as -7% and the Z score is 0.95.

For the compound `O=C(NCc1cn2cccnc2n1)[C@H]1CCCN(Cc2ccco2)C1`, the “% Inhibition” value is on record as -12% and the Z score came out at 2.4.

With `COCC(C)C(=O)N1CCC(N2C(=O)O[C@H]3CN(c4nc(C)nc5c4cnn5C)C[C@H]32)C1` (stereo partly specified), the “% Inhibition” value was -5% and the Z score worked out at 0.97.

Turning to `COc1ccc(-c2ccc(N3CCCC3)nn2)cn1`, the “% Inhibition” value was -11% and the Z score was found to be 1.6.

On to `CC1NC(=O)C(C)N(C(=O)NCc2ccccc2)C1C` (stereo unspecified), for which the “% Inhibition” value was -5% and the Z score is on record as 1.07.

`CC(C)Oc1ccc(-c2noc(Cc3nnc(-c4ccc(F)cc4)o3)n2)cc1`: the “% Inhibition” value is recorded as -8% and the Z score is recorded as 0.99.

As for `CC(C)c1cncc(NC(=O)[C@H](C)c2ccncc2)c1`, the “% Inhibition” value is -5% and the Z score is listed as 0.89.

Regarding `O=C(NC(Cc1ccncc1)[C@H]1C[C@H](O)C1)c1cnco1` (stereo partly specified), the “% Inhibition” value is recorded as -18% and the Z score amounted to 2.73.

In the case of `Cc1sc(CN2CCOCC2)nc1-c1cc(F)ccc1F`, the “% Inhibition” value stood at 1% and the Z score is listed as -0.14.

Consider `Cc1ccc(C(=O)Nc2cc(C(=O)N3CCCCC3C)cc(C(=O)N3CCCCC3C)c2)cc1` (stereo unspecified), for which the “% Inhibition” value was 6% and the Z score is on record as -0.87.

Consider `C[C@H]1CCCN(c2ccn3c(=O)n(CC(=O)NCc4ccccc4)nc3n2)C1`, for which the “% Inhibition” value is given as 0% and the Z score is recorded as 0.05.

On to `C[C@]1(O)C[C@@H](NS(=O)(=O)c2cc(Cl)sc2Cl)C1`, for which the “% Inhibition” value came to 1% and the Z score is -0.06.

For `Cc1ncn(-c2ccc(C(=O)OCc3ccccc3)cn2)n1`, the “% Inhibition” value was -7% and the Z score came to 0.82.

For the compound `CC[C@H](C)N(C)CCNC(=O)NCc1cc(C(F)(F)F)on1`, the “% Inhibition” value was -7% and the Z score is reported as 0.87.

Consider `Cn1nncc1CNc1ncc(Br)cc1CO`, for which the “% Inhibition” value is reported as -1% and the Z score came to 0.15.

In the case of `CN1C(=O)[C@@H](c2ccccc2)CC12CCN(C(=O)c1ccc(C#N)cc1)CC2`, the “% Inhibition” value is listed as -12% and the Z score was determined as 1.13.

As for `Cc1ccc2oc(C(=O)N3CC[C@H](O)CC34CCC4)cc2n1`, the “% Inhibition” value worked out at 4% and the Z score was -0.57.

For the compound `CCc1csc(N2CC(c3n[nH]c(C)n3)C2)n1`, the “% Inhibition” value was -3% and the Z score was determined as 0.61.

Take `COc1c(C(=O)N2CCN(c3cccc(C)n3)C[C@@H]2C)c(C)nn1C`: the “% Inhibition” value was 13% and the Z score was -1.26.

In the case of `O=C(Nc1ccccc1Cc1ccccc1)N1CCN(C(=O)c2ccccc2)CC1`, the “% Inhibition” value is -8% and the Z score amounted to 1.1.

On to `COc1cccc(N2CCN(C(=O)c3cc(-c4ccccc4)c(N4CCCCC4)s3)CC2)c1`, for which the “% Inhibition” value is -8% and the Z score came to 0.95.

Turning to `COCc1nc([C@@H]2CCCCCN2C)n(Cc2ccc(OC)cc2)n1`, the “% Inhibition” value is recorded as -9% and the Z score was 1.66.

With `COC[C@@H]1CCC[C@@H]1Nc1nc(-c2ccccn2)nc2c1CCNC2`, the “% Inhibition” value is reported as -4% and the Z score worked out at 0.61.

`Cc1ccc(CNC(=O)[C@@H]2C[C@H](n3cnnn3)CN2Cc2ccc(OCc3ccccc3)cc2)cc1`: the “% Inhibition” value is listed as -9% and the Z score came to 1.27.

In the case of `CC(=O)Nc1nsc(N2CCC(C(=O)N3CCN(c4ccccc4Cl)CC3)CC2)n1`, the “% Inhibition” value is -20% and the Z score came out at 3.22.

As to `Cn1cc(S(=O)(=O)NCc2cn(-c3ccsc3)nn2)cn1`, the “% Inhibition” value amounted to 7% and the Z score was -1.02.

Consider `N#Cc1ccc(C(=O)N2CCCN(C(=O)c3cccnc3)CCC(=O)NCC2)cc1`, for which the “% Inhibition” value is listed as -16% and the Z score was determined as 1.82.

Regarding `CC(C)N(C)c1ccc(Br)cn1`, the “% Inhibition” value is recorded as -11% and the Z score was 1.44.

Turning to `O=C1c2ccccc2C(=O)N1Cc1cc(-c2ccco2)on1`, the “% Inhibition” value was -11% and the Z score is reported as 1.84.

For `Cn1cc(C(N)=O)cc1C(=O)Oc1ccc(F)c(C(F)(F)F)c1`, the “% Inhibition” value is on record as 6% and the Z score is given as -0.59.

For `O=S(=O)(c1c(Cl)cccc1Cl)N1CCC[C@H](c2nc3ccccc3s2)C1`, the “% Inhibition” value is given as -5% and the Z score was 0.54.

As for `Cc1cnc(N[C@@H](C)CCn2cccn2)nc1N(C)C`, the “% Inhibition” value was determined as 7% and the Z score is -1.26.

With `Cc1ccc(C(=O)N[C@H]2CC(=O)N(c3ccccc3)C2)c(=O)[nH]1`, the “% Inhibition” value turned out to be 6% and the Z score is given as -0.76.

With `CCc1cc(C(=O)NC[C@@]2(C)CCC(=O)N2)ccc1O`, the “% Inhibition” value is reported as -15% and the Z score was 1.96.

`Cc1ccc2nc(C[C@H]3CN(C4CCOCC4)CC[C@H]3CC(=O)O)[nH]c2c1`: the “% Inhibition” value is 3% and the Z score is reported as -0.33.

As to `C[C@H](NCc1ccccc1F)c1noc(Cc2ccccc2)n1`, the “% Inhibition” value is -8% and the Z score is 1.3.

Turning to `CC1CCN(c2onc(-c3ccccc3)c2CN(Cc2ccccc2)C(=O)c2cccs2)CC1`, the “% Inhibition” value was -3% and the Z score is recorded as 0.28.

For the compound `Cc1cccc(C)c1NC(=O)N1CCCc2n[nH]cc21`, the “% Inhibition” value turned out to be 2% and the Z score was -0.28.

As for `COc1ccc(OCC2CCN([C@@H](C)C(=O)Nc3nncs3)CC2)cc1`, the “% Inhibition” value is -6% and the Z score worked out at 1.2.

For `O=C(Nc1cccc2cccnc12)N1CCOCC1CC(O)c1cccs1` (stereo unspecified), the “% Inhibition” value is recorded as 32% and the Z score was -4.32.

On to `CS(=O)(=O)N1CCC[C@@H]1CNC(=O)CC1CCC2CC12` (stereo partly specified), for which the “% Inhibition” value was -1% and the Z score amounted to 0.12.

Consider `O=C(Cn1c(=O)[nH]c2c(-c3ccccc3F)c[nH]c2c1=O)NC1CCCCCC1`, for which the “% Inhibition” value was determined as 10% and the Z score was -1.2.

For the compound `CCCCN(C(=O)NC(=O)Nc1ccccc1Br)S(C)(=O)=O`, the “% Inhibition” value is -10% and the Z score was 1.56.

For `CCN(CC)CCN(C)C(=O)c1cnn(-c2nccc(-c3cccs3)n2)c1C`, the “% Inhibition” value amounted to 7% and the Z score was -0.95.

As to `CCOC(=O)c1nn(Cc2ccncc2)c2c1CN(C(=O)CCc1ccc3c(c1)OCO3)CC2`, the “% Inhibition” value is reported as -5% and the Z score was 0.71.

Regarding `O=C(Cn1cc(C2CC2)nn1)Nc1cccc(Nc2ccccc2)c1`, the “% Inhibition” value is recorded as -19% and the Z score turned out to be 2.33.

Take `CC(C)c1ccc(NC(=O)[C@H]2CCCN(c3cnc4ccccc4n3)C2)cc1`: the “% Inhibition” value is -17% and the Z score is 1.56.

Consider `Fc1ccccc1-c1c[nH]c([C@@H]2CCCN2Cc2cccnc2)n1`, for which the “% Inhibition” value is -2% and the Z score was determined as 0.21.

`Cc1nn(C)c(C)c1[C@H](C)NS(=O)(=O)CC1CCCC1`: the “% Inhibition” value is listed as -4% and the Z score was determined as 0.8.

`O=C(c1onc2c1CCCC2)N1CCn2c(Cc3cccc(F)c3)nnc2C1`: the “% Inhibition” value is 4% and the Z score is reported as -0.71.
